# From a collection of fitness landscapes (doi:10.1016/j.celrep.2020.107928)
# The full ranking holds about 81,000 sequences; the median of “one-hybrid fitness for binding NBS DNA” is about -0.1, and the highest 2% start at about 0.36. This is one part of the list.
# B1: Caulobacter ParB omega fusion; a variant is named by its letters at X, in order, B8GW30 (parent)
# chain: MESVVVGEPGMSEGRRGLGRGLSALLGEVDAAPAQAPGEQLGGSREAPIEILQRNPDQPRRTFREEDLEDLSNSIREKGVLQPILVRPSPDTAGEYQIVAGERAWRAAQRAGLKTVPIMVRELDDLAVLEIGIIENVQRADLNVLEEALSYKVLMEKFERTQENIAQTIGKSXSHVANXMRLLXLPDEVQSYLVSGELTAXHARAIAAAADPVALAKQIIEGGLSVRETEALARKAPNLSAGKSKGGRPPRVKDTDTQALESDLSSVLGLDVSIDHRGSTGTLTITYATLEQLDDLCNRLTRGI
# Variants of: B1
# Test: one-hybrid fitness for binding NBS DNA (the Noc-binding site; scaled: cognate 1, non-cognate 0); higher = stronger binding
# Details: with NBS DNA site
# Outline: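 Selection: bacterial one-hybrid in E. coli USO, HIS3 reporter with the site 19 bp from the promoter, 48 hours at 37°C on M9-minus-histidine plus 0.1 mM IPTG and 5 mM 3-AT. Libraries were Caulobacter ParB with four randomised specificity codons, sequenced on Illumina before and after selection. Fitness is the rescaled log change in variant-to-wild-type read ratio, anchored to the cognate and non-cognate sites.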
row,Variant,one-hybrid fitness for binding NBS DNA
1,FHSG,≤ 0.2
2,ACVS,≤ 0.2
3,LPLF,≤ 0.2
4,GSIR,≤ 0.2
5,CVLS,≤ 0.2
6,LSYG,≤ 0.2
7,VNTW,≤ 0.2
8,TQPM,≤ 0.2
9,NLGP,≤ 0.2
10,KWQA,≤ 0.2
11,CSKC,≤ 0.2
12,SVVR,≤ 0.2
13,ALVS,≤ 0.2
14,CFSA,≤ 0.2
15,ALNV,≤ 0.2
16,QMKI,0.322
17,AEYG,≤ 0.2
18,NVGL,≤ 0.2
19,WVRY,≤ 0.2
20,SHWG,≤ 0.2
21,QITR,0.417
22,RQGA,≤ 0.2
23,GKTT,≤ 0.2
24,KHLS,≤ 0.2

row,Variant,one-hybrid fitness for binding NBS DNA
1,NTMV,≤ 0.2
2,TSFT,≤ 0.2
3,GMHS,≤ 0.2
4,NPEE,≤ 0.2
5,CTFG,≤ 0.2
6,YHAC,≤ 0.2
7,SVPT,≤ 0.2
8,GRMT,≤ 0.2
9,NCAG,≤ 0.2
10,RVLE,≤ 0.2
11,TCIM,≤ 0.2
12,NMDS,≤ 0.2
13,DLTI,≤ 0.2
14,THYL,≤ 0.2
15,VTEG,≤ 0.2
16,EDQT,≤ 0.2
17,NPQC,≤ 0.2
18,QKRD,0.268
19,TIIK,≤ 0.2
20,VPPP,≤ 0.2
21,RIQN,≤ 0.2
22,PESN,≤ 0.2
23,AYLF,≤ 0.2
24,ICVR,≤ 0.2

row,Variant,one-hybrid fitness for binding NBS DNA
1,PHSD,≤ 0.2
2,VYAG,≤ 0.2
3,VAGV,≤ 0.2
4,NKNR,0.227
5,WRSQ,≤ 0.2
6,AIGC,≤ 0.2
7,FLDG,≤ 0.2
8,SPTG,≤ 0.2
9,AIPP,≤ 0.2
10,PIKC,≤ 0.2
11,DRRS,≤ 0.2
12,GYHC,≤ 0.2
13,KQPF,≤ 0.2
14,ELFS,≤ 0.2
15,NCIY,≤ 0.2
16,AGIY,≤ 0.2
17,HTWS,≤ 0.2
18,GMII,≤ 0.2
19,YSVD,≤ 0.2
20,NRNM,≤ 0.2
21,AIRK,≤ 0.2
22,TPPL,≤ 0.2
23,LYEY,≤ 0.2
24,IDHA,≤ 0.2

row,Variant,one-hybrid fitness for binding NBS DNA
1,CATC,≤ 0.2
2,GKDV,≤ 0.2
3,TPRD,≤ 0.2
4,TGLF,≤ 0.2
5,QPNV,≤ 0.2
6,RWNR,0.436
7,LIID,≤ 0.2
8,LLQK,≤ 0.2
9,FGES,≤ 0.2
10,DSMW,≤ 0.2
11,NHQV,≤ 0.2
12,FRDR,≤ 0.2
13,HCKS,≤ 0.2
14,YTTS,≤ 0.2
15,WSHI,≤ 0.2
16,ESGS,≤ 0.2
17,KWSG,≤ 0.2
18,FTDR,≤ 0.2
19,TPRC,≤ 0.2
20,RDRC,≤ 0.2
21,HKPK,≤ 0.2
22,CDHC,≤ 0.2
23,KLTG,≤ 0.2
24,AVPM,≤ 0.2

row,Variant,one-hybrid fitness for binding NBS DNA
1,LAMV,≤ 0.2
2,SKTI,≤ 0.2
3,SNAA,≤ 0.2
4,EQSV,≤ 0.2
5,NNWM,≤ 0.2
6,IQLG,≤ 0.2
7,QQEA,≤ 0.2
8,LLER,≤ 0.2
9,RALM,≤ 0.2
10,KAPI,≤ 0.2
11,NLST,≤ 0.2
12,GHLP,≤ 0.2
13,TVRT,≤ 0.2
14,AMTL,≤ 0.2
15,SFWT,≤ 0.2
16,STRW,≤ 0.2
17,PHMC,≤ 0.2
18,YYRQ,≤ 0.2
19,YTVL,≤ 0.2
20,CLAG,≤ 0.2
21,PGHV,≤ 0.2
22,PGTY,≤ 0.2
23,DQPC,≤ 0.2
24,CICC,≤ 0.2

row,Variant,one-hybrid fitness for binding NBS DNA
1,PIPV,≤ 0.2
2,KPDT,≤ 0.2
3,THMG,≤ 0.2
4,ERLV,≤ 0.2
5,EMYT,≤ 0.2
6,KRNH,0.265
7,LAHC,≤ 0.2
8,YMHS,≤ 0.2
9,HNSL,≤ 0.2
10,CRVH,≤ 0.2
11,PRRW,≤ 0.2
12,IKKG,≤ 0.2
13,GALR,≤ 0.2
14,DQTN,≤ 0.2
15,FMCG,≤ 0.2
16,DPPS,≤ 0.2
17,LQSL,≤ 0.2
18,TRKM,0.216
19,SGEC,≤ 0.2
20,EPQT,≤ 0.2
21,ECLK,≤ 0.2
22,QIYA,≤ 0.2
23,SEGT,≤ 0.2
24,DWTC,≤ 0.2

row,Variant,one-hybrid fitness for binding NBS DNA
1,AMVS,≤ 0.2
2,LLTI,≤ 0.2
3,MDNY,≤ 0.2
4,RGWS,≤ 0.2
5,KDNR,≤ 0.2
6,CNLP,≤ 0.2
7,LNTT,≤ 0.2
8,KASM,≤ 0.2
9,RSVM,≤ 0.2
10,HRGR,≤ 0.2
11,FTRR,0.238
12,PCCS,≤ 0.2
13,PNPY,≤ 0.2
14,DRWG,≤ 0.2
15,LNQG,≤ 0.2
16,CHPQ,≤ 0.2
17,ACGD,≤ 0.2
18,KSTI,≤ 0.2
19,KSVL,≤ 0.2
20,LRSF,≤ 0.2
21,HRGC,≤ 0.2
22,ITKL,≤ 0.2
23,RLQM,≤ 0.2
24,EPLD,≤ 0.2

row,Variant,one-hybrid fitness for binding NBS DNA
1,VTGW,≤ 0.2
2,CHTT,≤ 0.2
3,TWCC,≤ 0.2
4,NING,≤ 0.2
5,FWPN,≤ 0.2
6,AEVG,≤ 0.2
7,NDRV,≤ 0.2
8,EEYR,≤ 0.2
9,EWTK,≤ 0.2
10,NTYE,≤ 0.2
11,PGAN,≤ 0.2
12,VVTG,≤ 0.2
13,PRQP,≤ 0.2
14,WNWT,≤ 0.2
15,DYSL,≤ 0.2
16,TKHI,≤ 0.2
17,VTKE,≤ 0.2
18,CGAG,≤ 0.2
19,LYKY,≤ 0.2
20,LPRQ,≤ 0.2
21,ILRV,≤ 0.2
22,LGHM,≤ 0.2
23,KRQN,≤ 0.2
24,SWSD,≤ 0.2

row,Variant,one-hybrid fitness for binding NBS DNA
1,VCKH,≤ 0.2
2,ELMS,≤ 0.2
3,ATPK,≤ 0.2
4,GNKW,≤ 0.2
5,FYYI,≤ 0.2
6,VYQD,≤ 0.2
7,HFQG,≤ 0.2
8,TRRN,≤ 0.2
9,CARW,≤ 0.2
10,RVYT,0.357
11,GNQS,≤ 0.2
12,STKT,≤ 0.2
13,LLLV,≤ 0.2
14,PAEK,≤ 0.2
15,YKNV,≤ 0.2
16,CIAG,≤ 0.2
17,QSIP,≤ 0.2
18,DSPQ,≤ 0.2
19,TIAC,≤ 0.2
20,RIIH,≤ 0.2
21,THGK,≤ 0.2
22,RTSH,0.207
23,QMAL,≤ 0.2
24,ALND,≤ 0.2

row,Variant,one-hybrid fitness for binding NBS DNA
1,VLKH,≤ 0.2
2,TLAT,≤ 0.2
3,QYPK,≤ 0.2
4,VQSW,≤ 0.2
5,PLRI,≤ 0.2
6,MKRI,≤ 0.2
7,KPNV,≤ 0.2
8,AMLV,≤ 0.2
9,LARF,≤ 0.2
10,AKDL,≤ 0.2
11,HRLT,≤ 0.2
12,EGGC,≤ 0.2
13,VQSE,≤ 0.2
14,WELR,≤ 0.2
15,NGVC,≤ 0.2
16,PLLV,≤ 0.2
17,KSSE,≤ 0.2
18,CPTA,≤ 0.2
19,KHYG,≤ 0.2
20,ETAE,≤ 0.2
21,ACHE,≤ 0.2
22,GLIT,≤ 0.2
23,TILD,≤ 0.2
24,EVTV,≤ 0.2

row,Variant,one-hybrid fitness for binding NBS DNA
1,RCIL,≤ 0.2
2,YIGT,≤ 0.2
3,CYLA,≤ 0.2
4,PEDE,≤ 0.2
5,ANSW,≤ 0.2
6,AALN,≤ 0.2
7,QNWG,≤ 0.2
8,YLMV,≤ 0.2
9,EASY,≤ 0.2
10,TMFS,≤ 0.2
11,VPVF,≤ 0.2
12,TKPK,≤ 0.2
13,QLFF,≤ 0.2
14,TFPM,≤ 0.2
15,SIPV,≤ 0.2
16,HAMN,≤ 0.2
17,RCKR,0.76
18,PERD,≤ 0.2
19,GFLS,≤ 0.2
20,GASC,≤ 0.2
21,IMHG,≤ 0.2
22,PRHC,≤ 0.2
23,LVCR,≤ 0.2
24,TSSF,≤ 0.2

row,Variant,one-hybrid fitness for binding NBS DNA
1,SSIL,≤ 0.2
2,SHIY,≤ 0.2
3,SVCA,≤ 0.2
4,MTTT,≤ 0.2
5,CLWI,≤ 0.2
6,WLGG,≤ 0.2
7,HTPE,≤ 0.2
8,EMIK,≤ 0.2
9,LSGN,≤ 0.2
10,YVAG,≤ 0.2
11,TGSL,≤ 0.2
12,PGLG,≤ 0.2
13,KRIE,≤ 0.2
14,QWAT,≤ 0.2
15,DPLM,≤ 0.2
16,RPVR,0.204
17,TSLM,≤ 0.2
18,PRML,≤ 0.2
19,RWPR,≤ 0.2
20,RGSE,≤ 0.2
21,AMPT,≤ 0.2
22,WPQL,≤ 0.2
23,REYT,≤ 0.2
24,CLAR,≤ 0.2

row,Variant,one-hybrid fitness for binding NBS DNA
1,PTCS,≤ 0.2
2,GPNP,≤ 0.2
3,VSWL,≤ 0.2
4,YTKS,≤ 0.2
5,NPSW,≤ 0.2
6,FAKH,≤ 0.2
7,NLSR,≤ 0.2
8,RNRS,0.491
9,LISP,≤ 0.2
10,MMDS,≤ 0.2
11,GTVV,≤ 0.2
12,DESW,≤ 0.2
13,MPFY,≤ 0.2
14,PFFT,≤ 0.2
15,MDHR,≤ 0.2
16,RMED,≤ 0.2
17,RHLD,≤ 0.2
18,FNKT,≤ 0.2
